# The list shows a part of the results.
# Test system: Pseudomonas aeruginosa PA14 dppA1-A5 penta deletion mutant
# Assay: respiration area under curve with compound as sole nitrogen source, 24 h (OmniLog AUC (arbitrary units)); higher = more respiration / better utilisation as nitrogen source, active = 2000 or more; extreme values may be limits of the assay
# Settings: plate: PM6
# Description: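 Biolog Phenotype MicroArray plates PM6-PM8: each di/tripeptide is the sole nitrogen source. Tetrazolium reduction was read in the OmniLog for 24 h at 37°C and summarised as area under the respiration curve (arbitrary units). Values below 2000 count as no respiration.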
row,Compound,respiration area under curve
1,C[C@H](N)C(=O)N[C@@H](Cc1c[nH]c2ccccc12)C(=O)O,active: 4250
2,CC(C)C[C@H](NC(=O)CN)C(=O)O,inactive: 0
3,N[C@@H](CCC(=O)O)C(=O)N[C@@H](Cc1ccc(O)cc1)C(=O)O,inactive: 233
4,N[C@@H](CC(=O)O)C(=O)N[C@@H](CCC(=O)O)C(=O)O,inactive: 11.9
5,NC(N)=NCCC[C@H](N)C(=O)N[C@@H](CCC(=O)O)C(=O)O,active: 9880
6,C[C@H](N)C(=O)N[C@@H](Cc1ccc(O)cc1)C(=O)O,active: 5750
7,NC(=O)CC[C@H](NC(=O)[C@@H](N)CCCN=C(N)N)C(=O)O,active: 9880
8,NC(N)=NCCC[C@H](N)C(=O)N[C@@H](Cc1c[nH]c2ccccc12)C(=O)O,active: 9000
9,CC[C@H](C)[C@H](N)C(=O)N[C@@H](C)C(=O)O,inactive: 676
10,CC(C)C[C@H](NC(=O)[C@@H](N)CC(=O)O)C(=O)O,inactive: 136
11,CC[C@H](C)[C@H](N)C(=O)N[C@H](C(=O)O)[C@@H](C)CC,inactive: 678
12,CC(C)[C@H](NC(=O)[C@@H](N)CC(=O)O)C(=O)O,inactive: 901
13,CSCC[C@H](NC(=O)CN)C(=O)O,inactive: 0

# Same assay, conditions: plate: PM7
row,Compound,respiration area under curve
1,CC(C)C[C@H](NC(=O)[C@@H](N)[C@@H](C)O)C(=O)O,active: 2320
2,NC(N)=NCCC[C@H](NC(=O)[C@@H](N)Cc1c[nH]c2ccccc12)C(=O)O,active: 12500
3,CSCC[C@H](N)C(=O)N[C@@H](Cc1c[nH]c2ccccc12)C(=O)O,active: 2830
4,N[C@@H](Cc1ccc(O)cc1)C(=O)N[C@@H](Cc1ccccc1)C(=O)O,active: 6080
5,O=C(O)[C@@H]1CCCN1C(=O)[C@@H]1CCCN1,inactive: 173
6,CC(C)[C@H](NC(=O)[C@@H](N)CO)C(=O)O,active: 4040
7,CC(C)C[C@H](NC(=O)[C@@H](N)CO)C(=O)O,active: 3380
8,N[C@@H](Cc1ccc(O)cc1)C(=O)NCC(=O)O,active: 5000
9,N[C@@H](Cc1c[nH]c2ccccc12)C(=O)N[C@@H](CCC(=O)O)C(=O)O,inactive: 110
10,CC[C@H](C)[C@H](NC(=O)[C@@H](N)C(C)C)C(=O)O,active: 4330
11,CSCC[C@H](N)C(=O)N[C@@H](CCC(=O)O)C(=O)O,inactive: 44.1
12,CC(C)[C@H](N)C(=O)N[C@@H](CCCN=C(N)N)C(=O)O,active: 13200
13,NC(Cc1c[nH]c2ccccc12)C(=O)NC(Cc1ccccc1)C(=O)O (stereo not given),inactive: 704
14,O=C(O)[C@H](Cc1ccccc1)NC(=O)[C@@H]1CCCN1,active: 3420

# Same assay, conditions: plate: PM8
row,Compound,respiration area under curve
1,CC(C)[C@H](N)C(=O)N1CCC[C@H]1C(=O)O,inactive: 13.7
2,NCC(=O)N[C@@H](CC(N)=O)C(=O)O,active: 13600
3,CC(C)[C@@H](NC(=O)CN)C(=O)O,inactive: 0
4,C[C@@H](O)[C@H](N)C(=O)N[C@@H](Cc1ccccc1)C(=O)O,inactive: 955
5,CSCC[C@H](N)C(=O)N[C@H](C(=O)O)[C@@H](C)O,inactive: 147
6,O=C(O)[C@H](Cc1c[nH]c2ccccc12)NC(=O)[C@@H]1CCCN1,inactive: 492
7,CSCC[C@H](NC(=O)[C@@H](N)Cc1ccccc1)C(=O)O,inactive: 236
8,CC(C)C[C@H](NC(=O)[C@@H](C)N)C(=O)O,inactive: 0
9,CC(C)C[C@H](N)C(=O)N[C@@H](CC(N)=O)C(=O)O,active: 11000
10,CC(C)C[C@H](N)C(=O)N1CCC[C@H]1C(=O)O,inactive: 0.429
11,CC(C)[C@H](N)C(=O)N[C@@H](Cc1ccccc1)C(=O)O,active: 4120
12,CSCC[C@H](NC(=O)[C@H](C)N)C(=O)O,inactive: 1870
13,CSCC[C@H](N)C(=O)N[C@@H](Cc1ccc(O)cc1)C(=O)O,inactive: 174
